Reference: PubChem BioAssay AID1347043 (National Center for Advancing Translational Sciences (NCATS), 2019)
In all, about 76,000 compounds went through this assay and about 1,900 (2.5%) were called active. Inconclusive results, whose numbers are uncertain, are shown with a selection of clear calls. Calls come from the whole dose curve; as a rule, active = well fitted inhibition curve with a large enough effect; inconclusive = small, poorly fitted or top-dose-only effect; inactive = flat fitted curve, though single readings scatter. A potency beside an inconclusive call is a rough fit, not a confirmed value.

Each molecule was assayed against Luciferin 4-monooxygenase (Photinus pyralis) (UniProt P08659) (assay: Firefly luciferase inhibition profiling of diverse chemical library using quantitative high-throughput screening). Settings: purified P. pyralis luciferase, luminescence, biochemical; series mostly up to 115 µM.
In short: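 Cell-free enzyme assay, 10nM P. pyralis luciferase, luciferin and ATP each at 10uM. Inhibition profiled over a 6-point titration, read as luminescence.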
Note: nearly all actives have a fitted effect of over 65% in size.
Potency is the fitted concentration of half-maximal effect; tags give direction and shape of the fitted curve.

Sequence of UniProt P08659 (P08659 whole entry, looked up): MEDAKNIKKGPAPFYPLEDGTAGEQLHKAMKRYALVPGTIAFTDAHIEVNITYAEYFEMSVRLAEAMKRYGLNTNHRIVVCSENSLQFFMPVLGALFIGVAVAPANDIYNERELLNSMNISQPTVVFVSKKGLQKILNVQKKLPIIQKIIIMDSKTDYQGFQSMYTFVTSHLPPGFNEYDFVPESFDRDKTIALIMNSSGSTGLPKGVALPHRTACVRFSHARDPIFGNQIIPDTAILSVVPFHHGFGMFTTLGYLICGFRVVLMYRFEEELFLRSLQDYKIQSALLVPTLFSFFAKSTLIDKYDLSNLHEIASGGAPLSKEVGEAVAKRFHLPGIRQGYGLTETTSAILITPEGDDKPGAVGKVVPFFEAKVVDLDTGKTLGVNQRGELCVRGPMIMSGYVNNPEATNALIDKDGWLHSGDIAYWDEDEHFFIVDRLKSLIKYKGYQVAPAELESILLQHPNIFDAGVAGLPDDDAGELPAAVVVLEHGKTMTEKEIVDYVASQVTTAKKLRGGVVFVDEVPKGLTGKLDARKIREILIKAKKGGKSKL

**Q.** `c1ccc(CN2CCC3(CC2)CC(c2cccnc2)=NO3)cc1` was tested. Which Potency did it give?
**A.** inactive

**Q.** With `O=C(Nc1ccc2c(c1)CCC2)c1cc2c(s1)CN(C1CC1)C2` as the molecule, how does the Potency read?
**A.** inconclusive: 44.7 µM [inhibitor, partial curve]

**Q.** `CNC(=O)[C@@H]1CN(C(=O)CCc2c[nH]c3ccccc23)C[C@H]1CO` was tested. Which Potency did it give?
**A.** inactive

**Q.** How did the Potency turn out when `O=C1CCN(C(=O)c2ccccc2)CCCC(C(=O)NCCCN2CCCc3ccccc32)CCN1` (configuration not stated) was run?
**A.** inconclusive: 50.1 µM [inhibitor, partial curve]

**Q.** Which Potency does the source give for `Cc1cccc(C(=O)N2CC(Oc3cccc(-c4nc(-c5ccccc5)no4)c3)C2)c1` here?
**A.** inconclusive: 20 µM [inhibitor, full curve]

**Q.** With `Cc1nn(C)c2nc(NCCCOC3CCCC3)sc12` as the molecule, how does the Potency read?
**A.** active: 35.5 µM

**Q.** `CN1C[C@@H](NC(=O)CC(C)(C)CC(=O)O)C[C@H]1c1nc(-c2ccccc2)no1` was tested. Which Potency did it give?
**A.** inconclusive: 100 µM [inhibitor, partial curve]

**Q.** With `COc1ccc(NC(=O)C2CCN(C(=O)c3ncn4c3COC(c3ccc(F)cc3)C4)CC2)cc1` (configuration not stated) as the molecule, how does the Potency read?
**A.** inconclusive: 50.1 µM [inhibitor, partial curve]

**Q.** `COc1ccc(C(=O)N2CCC[C@H]2c2nc(-c3ccccc3Cl)no2)cc1OC` was tested. Which Potency did it give?
**A.** inactive

**Q.** How did the Potency turn out when `COc1ccc2nc(NC(=O)Cn3nc4c(cc3=O)CCCC4)sc2c1` was run?
**A.** inconclusive: 35.5 µM [inhibitor, partial curve, poor fit]

**Q.** With `CC(C)CCNC(=O)c1ccc2c(c1)CC(=O)N2Cc1ccccc1` as the molecule, how does the Potency read?
**A.** inconclusive: 50.1 µM [inhibitor, partial curve]

**Q.** For `Cc1nc(C)c(C(=O)N2CCCn3cc(-c4ccccc4F)nc32)s1`, which Potency is on record?
**A.** inconclusive: 39.8 µM [inhibitor, partial curve]

**Q.** How did the Potency turn out when `NC(=O)Cc1c[nH]c2ncc(-c3ccc4c(c3)OCO4)cc12` was run?
**A.** active: 63.1 µM

**Q.** `COc1cccc(-c2ccc(COc3ccc4c(cnn4CCC(=O)O)c3)cc2)c1F` was tested. Which Potency did it give?
**A.** inconclusive: 56.2 µM [inhibitor, full curve]

**Q.** With `Clc1ccccc1CNC[C@H]1Cn2cc(-c3ccccc3)nc2CO1` as the molecule, how does the Potency read?
**A.** active: 56.2 µM

**Q.** Which Potency does the source give for `CC(C)Oc1cccc2c1c(NC(=O)c1cccnn1)nn2Cc1ccccc1` here?
**A.** inconclusive: 39.8 µM [inhibitor, full curve]

**Q.** For `CN(C(=O)CN1C(=O)NC2(CCCCC2)C1=O)C1CCCCC1`, which Potency is on record?
**A.** inactive

**Q.** With `COc1ccc(C2Cn3cnc(C(=O)N4CCC(C(=O)Nc5cccc(C)c5)CC4)c3CO2)cc1` (configuration not stated) as the molecule, how does the Potency read?
**A.** inconclusive: 50.1 µM [inhibitor, partial curve]

**Q.** Which Potency does the source give for `Cc1ccccc1CN1C[C@@H]2C(=O)N(Cc3ccc4c(c3)OCO4)C(=O)[C@@H]2C1` here?
**A.** inactive

**Q.** For `CC1=C(C(=O)N2CCOC(CCCc3ccccc3)C2)OCCO1` (configuration not stated), which Potency is on record?
**A.** inconclusive: 50.1 µM [inhibitor, partial curve]

**Q.** For `O=C(Cn1ccn2nc3c(c2c1=O)CCCCC3)Nc1ccccc1F`, which Potency is on record?
**A.** active: 44.7 µM

**Q.** Which Potency does the source give for `O=C([C@@H]1C[C@H](F)CN1C(=O)c1ccsc1)N1CCOCC1` here?
**A.** inactive

**Q.** For `C=CCNC(=O)c1cc2cccnn2n1`, which Potency is on record?
**A.** inconclusive: 112 µM [inhibitor, partial curve]

**Q.** Which Potency does the source give for `CC(=O)Nc1ccc(S(=O)(=O)N[C@H]2CO[C@H]3[C@@H]2OC[C@@H]3Nc2nccc(C(C)(C)C)n2)cc1` here?
**A.** inconclusive: 50.1 µM [inhibitor, partial curve]

**Q.** How did the Potency turn out when `CCc1ccc(NC(=O)C2CCN(C(=O)c3nnn4c3COC(c3ccc(OC)cc3)C4)CC2)cc1` (configuration not stated) was run?
**A.** inconclusive: 39.8 µM [inhibitor, partial curve]

**Q.** How did the Potency turn out when `COc1ccc(C(=O)N[C@H]2CO[C@H]3[C@@H]2OC[C@@H]3Nc2nccc(C(C)(C)C)n2)cc1` was run?
**A.** inconclusive: 112 µM [inhibitor, single point]

**Q.** For `O=C(N[C@H]1CCN2C(=O)c3cc(-c4ccccc4)ccc3NC(=O)[C@H]12)c1cccc(F)c1`, which Potency is on record?
**A.** inconclusive: 70.8 µM [inhibitor, full curve]

**Q.** Which Potency does the source give for `Cc1cccc(OCC(=O)c2ccc3c(c2)N(C(C)C(=O)N2CCOCC2)C(=O)CO3)c1C` (configuration not stated) here?
**A.** inconclusive: 44.7 µM [inhibitor, partial curve]

**Q.** With `CC1CCc2sc(C(=O)N(C)Cc3cc(-c4ccncc4)no3)cc2C1` (configuration not stated) as the molecule, how does the Potency read?
**A.** inconclusive: 39.8 µM [inhibitor, partial curve]

**Q.** How did the Potency turn out when `COc1cc2c(cc1OC)C(CNC(=O)C1CCCC1)N(C(=O)Nc1cccc(C)c1)CC2` (configuration not stated) was run?
**A.** inactive

**Q.** Which Potency does the source give for `Cc1ccccc1CC(=O)N1CCC(n2cc(-c3nc(-c4ccccc4)no3)nn2)CC1` here?
**A.** inactive

**Q.** How did the Potency turn out when `COC(C)c1cccc(-c2cc(NC3CC3)nc(N)n2)c1` (configuration not stated) was run?
**A.** inconclusive: 79.4 µM [inhibitor, single point]

**Q.** For `COc1cc(=O)n2c(c1C(=O)Nc1ccc3c(c1)OCCO3)CCCC2`, which Potency is on record?
**A.** inconclusive: 44.7 µM [inhibitor, partial curve]

**Q.** For `COc1ccc(CN2CCc3oc(C)c(C(=O)N4CCN(c5ncccn5)CC4)c3C2)cc1`, which Potency is on record?
**A.** inconclusive: 39.8 µM [inhibitor, partial curve]

**Q.** For `O=C(NCc1ccc(F)cc1F)C1CCN(C(=O)c2ncn3c2COC(c2ccccc2)C3)CC1` (configuration not stated), which Potency is on record?
**A.** active: 35.5 µM

**Q.** With `CCOCC(=O)N1c2ccccc2CC1c1noc(C(C)C)n1` (configuration not stated) as the molecule, how does the Potency read?
**A.** active: 7.08 µM

**Q.** With `COc1ccc2nc(C[C@@H]3C[C@@H](C(C)C)[C@H](CNC(=O)CCC(=O)O)C=C3C)[nH]c2c1` as the molecule, how does the Potency read?
**A.** inactive

**Q.** How did the Potency turn out when `O=C(NCC1CC1)c1nc2sccn2c1Br` was run?
**A.** inactive

**Q.** How did the Potency turn out when `COc1ccc(-c2cc(C[C@@H]3CC[C@H](O)[C@@H](CN(Cc4cccc(OC)c4)Cc4cccc(OC)c4)O3)no2)cc1` was run?
**A.** inconclusive: 44.7 µM [inhibitor, partial curve]

**Q.** How did the Potency turn out when `O=C1CCN(C(=O)c2cc3ccccc3[nH]2)CCCCCCN1` was run?
**A.** inconclusive: 11.2 µM [inhibitor, partial curve]

**Q.** For `CC(C)NC(=O)C[C@@H]1c2nc(NC(=O)c3ccc(C(C)(C)C)cc3)sc2C[C@@H]2[C@](C)(CO)[C@H](O)CC[C@]21C`, which Potency is on record?
**A.** inconclusive: 79.4 µM [inhibitor, partial curve, poor fit]

**Q.** `COc1ccc2c(c1)OCC(CNC(=O)c1cc(-c3ccncc3)n[nH]1)C2` (configuration not stated) was tested. Which Potency did it give?
**A.** inactive

**Q.** For `O=C(Nc1ccc(F)cc1)c1cc2cccnn2n1`, which Potency is on record?
**A.** active: 14.1 µM

**Q.** For `O=C(c1ccc(F)c(F)c1)N1CCCC(n2cc(-c3nc(-c4ccccc4)no3)nn2)C1` (configuration not stated), which Potency is on record?
**A.** inconclusive: 35.5 µM [inhibitor, partial curve]

**Q.** With `Cc1ccc(NC(=O)O[C@@H]2CO[C@H]3[C@@H]2OC[C@@H]3Nc2nccc(-c3ccccc3)n2)cc1` as the molecule, how does the Potency read?
**A.** inconclusive: 35.5 µM [inhibitor, full curve]

**Q.** How did the Potency turn out when `Cc1ccc(NC(=O)N2CCC(CCNC(=O)C3CCC3)CC2)cc1F` was run?
**A.** active: 11.2 µM

**Q.** How did the Potency turn out when `O=C(NCc1ccncc1)c1ccc(-c2ccc(N3CCCCC3)nc2)cc1` was run?
**A.** inconclusive: 31.6 µM [inhibitor, partial curve]

**Q.** `O=C(O)Cn1ccc2cc(OCCc3cccc(-c4ccccc4F)c3)cnc21` was tested. Which Potency did it give?
**A.** inconclusive: 63.1 µM [inhibitor, full curve]

**Q.** For `COc1ccc(CN2C[C@H](O)C[C@H]2c2nc(Cc3ccccc3)no2)cc1`, which Potency is on record?
**A.** inconclusive: 112 µM [inhibitor, single point]

**Q.** For `CC(C)c1ccc(NC(=O)CN2C(=O)NC(c3ccccc3Cl)C3=C2COC3=O)cc1` (configuration not stated), which Potency is on record?
**A.** inconclusive: 22.4 µM [inhibitor, full curve]

**Q.** Which Potency does the source give for `Cc1cc(Cl)ccc1-n1nc(C)c([C@@H]2C=C[C@@H](NC(=O)c3ccc(N(C)C)cc3)C2)c1C` here?
**A.** active: 17.8 µM

**Q.** Which Potency does the source give for `Cn1c([C@H]2CCN(C3CCOCC3)C2)nc2ccccc21` here?
**A.** inconclusive: 112 µM [inhibitor, partial curve]

**Q.** How did the Potency turn out when `COc1ccc(C(=O)Nc2cccc(-c3nnc4n3CCCC4)c2)cc1F` was run?
**A.** inconclusive: 50.1 µM [inhibitor, partial curve, poor fit]

**Q.** `COc1ccc(-c2ccnc3nc(-c4ccco4)nn23)c(F)c1` was tested. Which Potency did it give?
**A.** inconclusive: 44.7 µM [inhibitor, partial curve]

**Q.** `O=C(Cc1ccsc1)Nc1cccc(-c2nnc3n2CCCC3)c1` was tested. Which Potency did it give?
**A.** inactive

**Q.** For `COc1ccc(C(=O)N2CCC(n3cc(-c4nc(-c5ccccc5)no4)nn3)C2)cc1F` (configuration not stated), which Potency is on record?
**A.** inconclusive: 50.1 µM [inhibitor, partial curve]

**Q.** `Cc1ccc(-c2cc(N3CCC(CNC(=O)c4cc(C5CC5)[nH]n4)CC3)n[nH]2)cc1` was tested. Which Potency did it give?
**A.** inconclusive: 39.8 µM [inhibitor, partial curve]

**Q.** For `CC[C@H]1CN(S(=O)(=O)c2ccc(OC)cc2)CC[C@H]1CC(=O)NCc1ccc(OC)cc1`, which Potency is on record?
**A.** inactive

**Q.** With `CNC(=O)[C@@H](CC(C)C)N1CCC[C@H]1C(=O)NCCc1ccccn1` as the molecule, how does the Potency read?
**A.** inactive

**Q.** With `Cc1cccc(C)c1Oc1ncccc1CNC1CCN(C(C)C)CC1` as the molecule, how does the Potency read?
**A.** inactive

**Q.** Which Potency does the source give for `CCCc1noc(-c2cn(C3CCN(C(=O)c4ccc(F)c(F)c4)CC3)nn2)n1` here?
**A.** inactive

**Q.** How did the Potency turn out when `COC1CCOC2(CCN(C(=O)Nc3ccc4c(c3)OCCO4)CC2)C1` (configuration not stated) was run?
**A.** inconclusive: 50.1 µM [inhibitor, partial curve]

**Q.** Which Potency does the source give for `Cc1nc(-c2ccccc2)n(CC(=O)Nc2ccc(Cl)cc2)c(=O)c1CCO` here?
**A.** inactive

**Q.** How did the Potency turn out when `CN1CCOc2c(C(=O)NCCc3cnc[nH]3)cc(-c3cccc4[nH]ccc34)cc21` was run?
**A.** inconclusive: 112 µM [inhibitor, single point]

**Q.** How did the Potency turn out when `c1ccc(CCCc2noc(-c3ccc(N4CCCNCC4)nc3)n2)cc1` was run?
**A.** inconclusive: 35.5 µM [inhibitor, partial curve]

**Q.** `CSCC(=O)Nc1nn(-c2ccc(F)cc2)c2cccc(N3CCOCC3)c12` was tested. Which Potency did it give?
**A.** active: 6.31 µM

**Q.** `COc1ccc(C(=O)NC2CCCN(c3cc(-c4ccccc4)[nH]n3)C2)cc1F` (configuration not stated) was tested. Which Potency did it give?
**A.** inconclusive: 10 µM [inhibitor, full curve]
